# This is one part of the list. At the low end of the ranking, values are background and their order means little.
# Target: T1, GST-Rok-C97-191 (UniProt O34857)
# T1 sequence: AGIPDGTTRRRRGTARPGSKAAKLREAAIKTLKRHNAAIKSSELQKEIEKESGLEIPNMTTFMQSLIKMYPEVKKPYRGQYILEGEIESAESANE
# Assay: protein binding microarray;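 further: rank score from −0.5 (least bound) to 0.5 (best bound)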
# Conditions: Rok is a gene silencer of Bacillus subtilis; high values mean tight binding; most listed sequences are background and not binding sites; double strand, one strand shown
row,Sequence,binding signal [E-score]
1,GACCAGCC,-0.331
2,CTACGATA,0.316
3,GCCCTTTA,-0.17
4,GAGGCAGC,-0.268
5,AATTACAT,0.339
6,CCACGAGA,-0.237
7,CGGCGTTA,0.103
8,GGACTCTA,-0.0774
9,GGAAGGTA,0.0786
10,AGTAAAAC,0.246
11,ACGGGACT,0.158
12,AGCGTAGC,-0.233
13,ACGAGATA,0.142
14,ATATAGAG,0.165
15,GCTTCTCA,0.0108
16,ATTTTCCG,0.329
17,ATTTCAGC,0.178
18,ATCATAAA,0.247
19,ATAATGAC,0.105
20,AGAACGGC,0.0736
21,AAGTATCA,0.107
22,CAATGCGA,-0.0881
23,CATAATCG,0.114
24,GACGTTGA,-0.161
25,CAAGGCCC,-0.358

row,Sequence,binding signal [E-score]
1,AAAATCTG,0.00361
2,AATTGTCA,-0.201
3,GACACTGC,-0.137
4,GCAAGTAC,0.257
5,CATAATTC,0.182
6,CGGATAAG,-0.0845
7,AATCGGGG,-0.184
8,ACACGCGG,-0.181
9,CCGACTTA,0.089
10,CCTGCAAG,-0.238
11,AGCCCGTG,-0.127
12,CCAACTGC,0.0316
13,ACCACCTG,-0.116
14,CAAGCATG,-0.127
15,CATCCTGA,-0.13
16,ACTTACCA,0.219
17,AGTTTGAC,-0.0921
18,ACACAAAT,0.159
19,GTCCGTGA,-0.229
20,ACTTTAGG,0.0834
21,AGCAGCCA,-0.192
22,AGGTGGCA,-0.245
23,CACTTTGC,-0.0894
24,ATCAAAGA,0.0322
25,CAAGTCAA,0.144

row,Sequence,binding signal [E-score]
1,ATCCCCCA,-0.27
2,ATTTTGCA,0.101
3,CTGGTATA,0.205
4,ACGGCCGC,-0.224
5,GGTGGCCA,-0.204
6,ACGTGGTG,-0.136
7,ACCGTTTA,-0.0269
8,GCACCGGC,-0.224
9,CCCGTCCC,-0.145
10,CAGGGCCC,-0.318
11,CTTAGAAG,-0.0526
12,CTGCCGGC,-0.084
13,ATCTTTCA,0.0961
14,ATGCCCGA,-0.167
15,GCGTTGCA,-0.176
16,AAGGCCGC,-0.192
17,ACTGGCAC,-0.224
18,CGTGTAGC,-0.0895
19,AAGTCCCC,-0.12
20,CGTGCTAC,0.182
21,AATAAACA,0.179
22,GTTTGACA,-0.165
23,ATTAGTGC,0.199
24,ACGTATAA,0.268
25,CGGCGCCC,-0.139

row,Sequence,binding signal [E-score]
1,CCATGAAC,-0.0824
2,AGCGGTAC,-0.208
3,CAATTGCC,-0.106
4,ACTCTTGG,-0.111
5,ATGCCGTA,0.00241
6,ACTCATCG,0.0111
7,AGGAGCGC,-0.246
8,ATATACAC,0.289
9,TCCATAAA,-0.0431
10,AAAGCGTA,0.0298
11,CAACCGAG,-0.155
12,AAGTTTGG,0.0482
13,CTCTACTC,-0.00133
14,GAGTAATC,0.149
15,AAGTTGGA,-0.145
16,CACAGCAG,-0.357
17,ATTCCAAG,0.00122
18,ACGTCCCA,-0.183
19,ACCCGGAC,-0.245
20,CTCCAAGA,-0.084
21,AGACACTA,0.0331
22,ACACAATA,0.153
23,CCTGCCAA,0.000588
24,AGCTTTAT,0.139
25,ACAAACGT,0.0766

row,Sequence,binding signal [E-score]
1,ACGCTGTG,-0.183
2,AATGGTCT,-0.0373
3,TGCTCAAA,-0.0774
4,ACACCGGC,-0.282
5,TGGGACCA,-0.17
6,GCCACATA,-0.17
7,GTCCGGCA,-0.0894
8,TGGCACAA,-0.148
9,GGGTTGGA,-0.19
10,AGTTATTC,0.155
11,ATCGGCCA,0.0732
12,AGCATGCC,-0.0867
13,AGTAAACT,0.105
14,CGATTGCC,-0.0576
15,AAGATTGA,-0.0328
16,ACTACGGC,0.135
17,GCATTACA,0.0406
18,GCGTAAAA,0.139
19,ACCTTCTC,-0.0355
20,AGGGTCTA,-0.218
21,AATTGTGA,0.177
22,ACGGATAT,0.0273
23,CCCTGACC,-0.368
24,GGCCGAAA,-0.0763
25,AGTAGTAG,0.385

row,Sequence,binding signal [E-score]
1,CTCTTGGA,-0.216
2,TACTTCTA,0.374
3,AATGCAGT,-0.0264
4,CTCATTAC,0.0511
5,CTCAAGCA,-0.137
6,CGGTGCGA,-0.192
7,AAGTGCTG,-0.222
8,GCAATGGA,-0.132
9,GAGCCTAC,-0.193
10,ATCTAGAC,0.17
11,CTCTCGTA,-0.00131
12,GAATTTTA,0.304
13,ATTGGCGA,0.0442
14,GGGATTTA,0.194
15,AGGTTACA,0.121
16,AGGTGTCC,-0.13
17,GTCCTGTA,-0.104
18,ACAAAGAG,-0.107
19,GTTGCTAA,0.114
20,AAAACCAA,0.0758
21,ATACACTG,0.0882
22,GGGCGTTA,-0.237
23,GCTCAATA,0.114
24,CAAGGCTC,-0.273
25,ACACTTAT,0.226

row,Sequence,binding signal [E-score]
1,AATCGGAG,0.123
2,ATCAGGAA,0.156
3,GATGACGA,-0.175
4,ATGGTTTG,-0.003
5,ATGAGATG,0.00662
6,GAGACTCA,-0.18
7,CCATAATA,0.104
8,CGGCAGGC,-0.268
9,CGGGCCCC,-0.347
10,ATGTCTGA,0.000888
11,CAACGTAA,0.0717
12,ATATTGAA,0.203
13,TGAGTCAA,0.0513
14,CGCAGGCG,-0.308
15,CTCCCAAG,-0.265
16,AGCAGGCG,-0.141
17,CGTAAAAA,-0.0178
18,CTTAGCCC,-0.14
19,CAGGCAAC,-0.0688
20,CGGACCCC,-0.212
21,CCGGCAAG,-0.0857
22,GTAAGGCA,-0.0838
23,AGAGTACT,0.169
24,AGAGAAGA,0.0903
25,CATATGAA,-0.0194

row,Sequence,binding signal [E-score]
1,ACGATCGA,0.0924
2,AGGCTAGC,-0.115
3,GACACGTC,-0.169
4,CCTAGGAC,-0.0828
5,ACGCGACA,0.0239
6,ACATATTA,0.304
7,ATTCTCTC,-0.105
8,GCTGCGTA,-0.148
9,ATGAGCAT,-0.0594
10,CGAGTGAA,-0.0682
11,ACAAGAAC,0.0534
12,ACCCACGT,-0.188
13,ATCTGTGA,-0.0563
14,AAGAGCGT,-0.0627
15,CCTGTGCG,-0.227
16,CACAAGTC,-0.271
17,CCACGAAA,0.0822
18,GAACTCAC,0.0236
19,CCGCCACC,-0.143
20,ATCCTTAA,-0.104
21,AGGAAGCC,-0.151
22,ATTCGGAA,0.12
23,GTCGGCGA,-0.125
24,TAACACCA,0.0115
25,CCTTAGCA,-0.106

row,Sequence,binding signal [E-score]
1,CGTATGAG,-0.028
2,AGCCTTCA,-0.128
3,ACACGCAG,-0.19
4,GTAATGAA,-0.0192
5,GGTCAGCA,-0.231
6,CCTAAATA,0.155
7,AATTGGAG,0.085
8,AGGCCAAC,-0.129
9,GCTAAACA,-0.119
10,CACGGAGA,-0.118
11,AAGTACGA,0.194
12,ACAGACCT,-0.054
13,CACGTGCA,-0.148
14,CACCCGAG,-0.0129
15,ATCCGCCA,-0.21
16,CACTGACG,0.009
17,ATAGCCCG,-0.0269
18,CGGGGGGA,-0.317
19,CGTTCAAG,-0.258
20,CTTGTACA,0.115
21,ACAGTGGA,0.124
22,GATATTGC,0.0982
23,TCGACTCA,0.0612
24,AAAAACAT,0.1
25,AGTATGAG,0.0573

row,Sequence,binding signal [E-score]
1,TAAATTGA,0.221
2,AGATTACA,0.0826
3,AATGTCAA,-0.0783
4,ACTTCTAG,0.235
5,GAGTACCA,-0.0807
6,ATATCGAC,0.0908
7,CTAAATAA,0.266
8,ATAGCTGA,0.11
9,CGAAAAGA,-0.0269
10,GGGAGACA,-0.302
11,CAGCACTA,-0.19
12,ACCAAGTG,-0.127
13,TTACATAA,0.288
14,GGGGCTGA,-0.355
15,ACGTTCCC,-0.195
16,CTGTCTGA,-0.222
17,CCCCTGCA,-0.335
18,CACACGTC,-0.256
19,CATGTGTA,0.23
20,CGCGGTTC,-0.14
21,GGTTGGAC,-0.252
22,AATGAAAA,-0.038
23,CAGCGTTA,0.0516
24,GGGCGCCA,-0.231
25,AACCTTCG,-0.0943

row,Sequence,binding signal [E-score]
1,ATATTTTC,0.316
2,CAGATATA,0.195
3,GGAAAGAC,-0.185
4,AAAACTGC,-0.0367
5,ATAGCTAC,0.31
6,ATTATGAA,0.153
7,ACTAACCT,0.13
8,ACTTAACA,0.192
9,ATCCATGC,0.0436
10,TGCGTAAA,0.0869
11,AATTGCAG,-0.0417
12,ACCGAATG,0.181
13,GGGTCAAA,-0.168
14,GGAGTGGA,-0.299
15,AGTCACCG,0.109
16,AATCCTAG,0.0199
17,GCACCGGA,-0.0184
18,CACCGACC,-0.145
19,ACTTTCGA,0.00677
20,TCCGTTAA,-0.0144
21,GTTAATGA,0.082
22,TAACCTGA,-0.0138
23,CGGCATTC,-0.317
24,CAGCAGGG,-0.187
25,AAAGCGAT,0.0225

row,Sequence,binding signal [E-score]
1,CGACAATC,-0.0224
2,TGCGTCCA,-0.0414
3,CTAATGAC,-0.0991
4,AAAGCGCT,-0.0448
5,AAATTTTC,0.182
6,AGATTAAT,0.265
7,TCAATCAA,-0.14
8,ATCTGTGC,0.11
9,ACTATCCG,-0.0363
10,CAGCCAAA,-0.0566
11,GGGGCATA,-0.0817
12,CTCTTAAC,0.00417
13,CTGAGATC,-0.0302
14,AGCATAAT,0.369
15,CAGGTAGG,-0.092
16,GCTGCTCA,-0.231
17,ATTGCGTA,0.259
18,GAAAGTTA,0.121
19,GAACAGGC,-0.193
20,AGGCATGG,-0.0956
21,TGCCAAAA,0.0238
22,GCTATGGA,0.0973
23,AACTCGAA,0.0378
24,ATGGTATC,0.0289
25,CTAAATAC,0.287

row,Sequence,binding signal [E-score]
1,GCAAGACC,-0.24
2,GACTAATC,0.132
3,CGCACGGA,-0.149
4,CAGCGACG,-0.179
5,ATTTTCAA,-0.13
6,AACGTCCC,-0.298
7,CTGTATAA,0.215
8,CGGCCCTA,-0.267
9,ATCCCTAA,-0.0982
10,CCATGCGC,-0.253
11,ATCGCGCA,-0.0522
12,ACACGTGC,-0.137
13,TAGAGCGA,-0.00858
14,CAAAATCC,-0.082
15,AGGACAAT,-0.0191
16,CGCTGCCA,-0.279
17,ATCGGTCG,-0.132
18,AAATGATC,0.0378
19,CGCAGGCA,-0.209
20,CAGAAAGC,-0.0117
21,GGACGTGA,-0.172
22,ATACAGTA,0.385
23,TGAATACA,0.0229
24,AGGGCTTG,-0.318
25,TTCCCAAA,-0.219

row,Sequence,binding signal [E-score]
1,AATGCCAT,0.107
2,CAAGCACA,-0.0429
3,CGGTTCTA,0.05
4,GGAACTAA,0.114
5,GCACCCCC,-0.342
6,GAACCGTC,-0.215
7,CCCGCGTA,-0.12
8,ACCTTCTG,-0.00111
9,AAGTAAGA,-0.0414
10,CGCCGACC,-0.381
11,AATTAAGG,0.0283
12,CATGGACC,-0.207
13,AACGCGGC,-0.244
14,ATCATAGA,0.155
15,AGTTCATC,0.0552
16,GGAGCTAA,0.0242
17,GTGTGAGA,0.027
18,GATAGCAA,0.137
19,ACCGTCTC,-0.115
